Measured values reported in PubChem BioAssay (Tox21).
“And” between values parts separate entries of the source, which are not always exact repeats. Equal values may be shown once. The inconclusive results got no clear call from the source; some entries with a clear call stand among them for comparison. Potencies of inconclusive entries are left out as doubtful fits. The source made the active and inactive calls. Unless noted, calls come from the whole dose curve; as a rule, active = well fitted cell-killing curve with a large enough effect in the repeat runs; inconclusive = weak or mixed curves, or effect the other way; inactive = flat fitted curve, though single readings scatter.

system: not listed separately; experiment: qHTS assay to identify small molecule that activate the aryl hydrocarbon receptor (AhR) signaling pathway - cell viability counter screen (AID 743086); settings: HepG2-AhR-luc viability, CellTiter-Fluor, 24 h; series mostly up to 70.3 µM; viability change, negative = cytotoxic: at the top concentration; note: nearly all actives have a fitted effect of over 45% in size;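 for viability change, negative = cytotoxic: HepG2 liver cells carrying the AhR DRE luciferase reporter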
How it was run: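 HepG2-AhR-luc (HG2L7.5c1) cells, 4000/well, were preincubated 5 h at 37C, exposed to compound in qHTS format for 24 hr at 37C, then given CellTiter-Fluor for 30 min; viability was read as fluorescence in the reporter wells.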
% is set by controls: 0 for no effect and ±100 for the full control effect; potency is the fitted concentration of half-maximal effect; tags give direction and shape of the fitted curve or compound fluorescence and quenching.

| SMILES | Potency | viability change, negative = cytotoxic |
| --- | --- | --- |
| CO[C@H]1C=CO[C@@]2(C)Oc3c(C)c(O)c4c(O)c(c5c(c4c3C2=O)=NC2(CCN(CC(C)C)CC2)N=5)NC(=O)/C(C)=C\C=C/[C@H](C)[C@H](O)[C@@H](C)[C@@H](O)[C@@H](C)[C@H](OC(C)=O)[C@@H]1C | inconclusive [falling, full curve] | – |
| S=C([S-])NCCNC(=S)[S-].S=C([S-])NCCNC(=S)[S-].[Mn+2].[Zn+2] | – | inactive: 2.62% |
| COc1cc(NC(C)CCCN)c2ncccc2c1 (stereo not drawn) | – | inactive: -2.86% [at 32.5 µM] |
| Nc1ccc2c3c(cccc13)-c1ccccc1-2 | inconclusive [rising, partial curve] | – |
| CN1CCC(Nc2ncc3ncnc(Nc4ccc(F)c(Cl)c4)c3n2)CC1 | inconclusive [falling, partial curve] | – |
| CC1(C)C(=O)N(Br)C(=O)N1Cl | inconclusive [rising, partial curve, poor fit] | – |
| O=C(CCCN1CCN(c2ccc(F)cc2)CC1)NC1c2ccccc2CSc2ccccc21 (stereo not drawn) | inconclusive | – |
| CCOC(=O)c1ccc(C2CCC(NC[C@H](O)COc3ccc(O)c(NS(C)(=O)=O)c3)CC2)cc1 (stereo partly drawn) | inconclusive [falling, single point] | – |
| Fc1ccc([C@@H]2CCNC[C@H]2COc2ccc3c(c2)OCO3)cc1 | active: 26.6 µM | – |
| CC(C)(C)c1csc(-c2cc3cc(OCc4ccccc4CC(=O)O)ccc3o2)n1 | inconclusive [falling, single point] | – |
| OCCN1CCN(CCCN2c3ccccc3C=Cc3ccccc32)CC1 | active: 10.6 µM and active: 26.6 µM | – |
| CNC(=O)CN(CCN(CCN(CC(=O)[O-])CC(=O)NC)CC(=O)[O-])CC(=O)[O-].O.[Gd+3] | inconclusive [rising, partial curve, poor fit] | – |
| CC(C)(C)S | – | inactive: 6.82% [at 95 µM] |
| COC(=O)C1=C(C)NC(C)=C(C(=O)OCCN2CCN(C(c3ccccc3)c3ccccc3)CC2)C1c1cccc([N+](=O)[O-])c1 (stereo not drawn) | inconclusive [falling, partial curve] | – |
| CC1=CC(=O)CC(C)(C)C1(O)/C=C/C(C)=C\C(=O)O (stereo not drawn) | – | inactive: -11.7% |
| COc1c(C)c2c(c(O)c1C/C=C(\C)CCC(=O)OCCN1CCOCC1)C(=O)OC2 | – | inactive: 0.358% |
| O=C(O)CNC(=O)c1ccccc1I | inconclusive [rising, partial curve, poor fit] | – |
| CC[C@H](NC(=O)c1cc(F)ccc1NS(=O)(=O)c1cccc2cccnc12)c1ccccc1 | – | inactive: -0.929% |
| COC(=O)C1=C(C)NC(C)=C(C(=O)OCC(C)=O)C1c1ccccc1[N+](=O)[O-] (stereo not drawn) | active: 29.8 µM | – |
| CN(CCCN1c2ccccc2CCc2ccccc21)CC(=O)c1ccc(Cl)cc1 | inconclusive [falling, partial curve] | – |
| COC(OC)OC | – | inactive: -9.05% |
| CCCCCCCCCCCSCC(=O)O | – | inactive: -4.25% |
| Cc1c(Cl)cccc1[N+](=O)[O-] | – | inactive: -2.31% |
| O=C(N[C@@H](c1ccccc1)[C@@H]1CCCCN1)c1cccc(C(F)(F)F)c1Cl | active: 24.3 µM | – |
| Cc1ccc2cccnc2c1 | – | inactive: 0.972% |
| CC(C)(Cc1c[nH]c2ccccc12)NCC(O)COc1ccccc1C#N (stereo not drawn) | inconclusive | – |

target: Peroxisome proliferator-activated receptor gamma (Homo sapiens) (UniProt P37231); experiment: qHTS assay to identify small molecule agonists of the peroxisome proliferator-activated receptor gamma (PPARg) signaling pathway (AID 743094; active = well fitted activation curve with a large enough effect in the signal ratio in the repeat runs, not every such curve was filed as active; inconclusive = weak or mixed curves, or effect the other way; inactive = no such curve, though single readings can be large or run the other way; the % refers to the signal ratio); settings: HEK293H PPARg-UAS-bla, beta-lactamase FRET ratio, 17 h; activation: at 57 µM (top of the series) unless noted
How it was run: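 Stably transfected HEK293H cells (GeneBLAzer PPARg UAS-bla) were incubated with test substances for 17 h at 37C after a 5 h pre-incubation; beta-lactamase activity was then detected by FRET substrate fluorescence.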

UniProt P37231, sequence (P37231 whole entry, looked up): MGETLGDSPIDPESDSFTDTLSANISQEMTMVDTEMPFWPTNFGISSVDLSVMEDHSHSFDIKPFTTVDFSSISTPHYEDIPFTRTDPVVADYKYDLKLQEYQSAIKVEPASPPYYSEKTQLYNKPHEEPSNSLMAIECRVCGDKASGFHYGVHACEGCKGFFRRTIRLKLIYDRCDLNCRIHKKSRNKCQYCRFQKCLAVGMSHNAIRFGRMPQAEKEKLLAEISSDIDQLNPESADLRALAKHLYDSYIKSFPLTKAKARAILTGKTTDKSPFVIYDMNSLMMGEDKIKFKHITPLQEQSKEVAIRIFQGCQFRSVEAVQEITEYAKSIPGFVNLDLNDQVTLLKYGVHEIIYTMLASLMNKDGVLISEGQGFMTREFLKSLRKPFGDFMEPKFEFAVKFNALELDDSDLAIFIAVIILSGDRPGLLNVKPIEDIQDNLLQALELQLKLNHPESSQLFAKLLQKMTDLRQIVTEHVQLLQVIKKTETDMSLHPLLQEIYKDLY

| SMILES | Potency | activation |
| --- | --- | --- |
| CO[C@H]1C=CO[C@@]2(C)Oc3c(C)c(O)c4c(O)c(c5c(c4c3C2=O)=NC2(CCN(CC(C)C)CC2)N=5)NC(=O)/C(C)=C\C=C/[C@H](C)[C@H](O)[C@@H](C)[C@@H](O)[C@@H](C)[C@H](OC(C)=O)[C@@H]1C | inconclusive | inconclusive: -0.0394% |
| S=C([S-])NCCNC(=S)[S-].S=C([S-])NCCNC(=S)[S-].[Mn+2].[Zn+2] | – | inconclusive: -12.1% |
| COc1cc(NC(C)CCCN)c2ncccc2c1 (stereo not drawn) | – | inactive: -1.18% [at 26.2 µM] |
| Nc1ccc2c3c(cccc13)-c1ccccc1-2 | inconclusive [fluorescent, partial curve] | – |
| CN1CCC(Nc2ncc3ncnc(Nc4ccc(F)c(Cl)c4)c3n2)CC1 | inconclusive [fluorescent, partial curve] | – |
| CC1(C)C(=O)N(Br)C(=O)N1Cl | inconclusive [falling, partial curve, poor fit] | – |
| O=C(CCCN1CCN(c2ccc(F)cc2)CC1)NC1c2ccccc2CSc2ccccc21 (stereo not drawn) | – | inconclusive: -14% |
| CCOC(=O)c1ccc(C2CCC(NC[C@H](O)COc3ccc(O)c(NS(C)(=O)=O)c3)CC2)cc1 (stereo partly drawn) | inconclusive [fluorescent, full curve, poor fit] | – |
| Fc1ccc([C@@H]2CCNC[C@H]2COc2ccc3c(c2)OCO3)cc1 | – | inconclusive: -10.3% |
| CC(C)(C)c1csc(-c2cc3cc(OCc4ccccc4CC(=O)O)ccc3o2)n1 | active: 0.776 µM | – |
| OCCN1CCN(CCCN2c3ccccc3C=Cc3ccccc32)CC1 | – | inconclusive: -11.3% and inconclusive: -17.7% |
| CC(C)(C)S | – | inactive: 4.09% [at 78.9 µM] |
| COC(=O)C1=C(C)NC(C)=C(C(=O)OCCN2CCN(C(c3ccccc3)c3ccccc3)CC2)C1c1cccc([N+](=O)[O-])c1 (stereo not drawn) | inconclusive [inhibitor, partial curve] | – |
| COc1c(C)c2c(c(O)c1C/C=C(\C)CCC(=O)OCCN1CCOCC1)C(=O)OC2 | inconclusive [inhibitor, full curve] | – |
| CC[C@H](NC(=O)c1cc(F)ccc1NS(=O)(=O)c1cccc2cccnc12)c1ccccc1 | – | inconclusive: -0.293% |
| COC(=O)C1=C(C)NC(C)=C(C(=O)OCC(C)=O)C1c1ccccc1[N+](=O)[O-] (stereo not drawn) | – | inactive: -7.32% |
| CN(CCCN1c2ccccc2CCc2ccccc21)CC(=O)c1ccc(Cl)cc1 | – | inconclusive: -14.6% |
| CCCCCCCCCCCSCC(=O)O | inconclusive [activator] | – |
| Cc1c(Cl)cccc1[N+](=O)[O-] | – | inactive: -5.15% |
| O=C(N[C@@H](c1ccccc1)[C@@H]1CCCCN1)c1cccc(C(F)(F)F)c1Cl | inconclusive [rising, partial curve, poor fit] | – |
| CC(C)(Cc1c[nH]c2ccccc12)NCC(O)COc1ccccc1C#N (stereo not drawn) | – | inconclusive: -12.7% |
